# Among all 310,000 compounds or so, about 18,000 (5.8%) were called active. This list was built around the results that the source calls inconclusive (neither active nor inactive); the mix of calls is not that of the screen. Calls come from the whole dose curve; as a rule, active = well fitted inhibition curve with a large enough effect; inconclusive = small, poorly fitted or top-dose-only effect, or another doubt; inactive = no such curve, though single readings can be large or run the other way. Potencies of inconclusive entries are left out as doubtful fits.
# Assay: Primary qHTS for delayed death inhibitors of the malarial parasite plastid, 48 hour incubation
# Conditions: P. falciparum luciferase growth in erythrocytes; series mostly up to 28.7 µM; activity change, negative = inhibition: at the top concentration
# Outline: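 First compound was added to culture medium, then infected red cells at 0.1% parasitemia and 2% hematocrit (final). After incubation at 37 C under 5% CO2, luciferase detection reagent was dispensed and light output recorded.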
# % is set by controls: 0 for no effect and ±100 for the full control effect; potency is the fitted concentration of half-maximal effect; tags give direction and shape of the fitted curve.
SMILES,Potency,"activity change, negative = inhibition"
COc1cc(/C=N/Nc2nc(=O)[nH]nc2C)cc([N+](=O)[O-])c1O,active: 1.17 µM,–
CCOc1ccc(C(C)=O)cc1CN1c2ccc(S(N)(=O)=O)cc2CC1C (stereo not drawn),–,inactive: 3.24%
Nc1nc(CSC(=S)N2CCN(c3ccccc3)CC2)nc(Nc2ccccc2)n1,"inconclusive [inhibitor, single point]",–
CCN1CCN(c2ccc(NC(=O)c3ccc(Cl)c(N4CCCC4=O)c3)cc2)CC1,–,inactive: 7.86%
CC(C)NC(=O)N(O)C1N(Cc2ccc3c(c2)OCO3)C(=S)SC1(C)C (stereo not drawn),"inconclusive [inhibitor, partial curve]",–
CC1CC(C)CN(C(=O)C(C)N(C)CC(=O)Nc2ccccc2Cl)C1 (stereo not drawn),–,inactive: -28.3%
CC(=O)Nc1ccc(NC(=O)CN2C(=O)COc3ccc(S(=O)(=O)N4CCCCC4)cc32)cc1,"inconclusive [inhibitor, single point]",–
CCOC(=O)C1=C(C)NC(C)=C(C(=O)OCC)C1C1=COCCO1,"inconclusive [inhibitor, partial curve]",–
C[C@H](NC(=O)c1nc[nH]c1C(=O)N[C@@H](Cc1ccccc1)C(=O)OCc1ccccc1)c1ccccc1,"inconclusive [inhibitor, partial curve, poor fit]",–
COc1cccc(NC(=O)NC2CC(=O)N(c3ccc4c(c3)OCCO4)C2)c1 (stereo not drawn),"inconclusive [inhibitor, single point]",–
O=C(CN1C(=O)C2CCCCN2C(=O)c2ccccc21)Nc1ccc(F)cc1 (stereo not drawn),"inconclusive [inhibitor, full curve, poor fit]",–
CC(=O)c1c[nH]c(C(=O)NCC2CCCO2)c1 (stereo not drawn),–,inactive: 10.8%
CC(Oc1ccccc1)C(=O)Nc1ccc(F)c(S(=O)(=O)N2CCOCC2)c1 (stereo not drawn),–,inactive: -10.4%
CCCCCCC(C)NC(=S)Nc1cc(S(=O)(=O)N(C)C)ccc1C (stereo not drawn),"inconclusive [inhibitor, single point]",–
O=C(c1ccc(COc2c(F)c(F)cc(F)c2F)o1)N1CCN(c2ccccc2)CC1,"inconclusive [inhibitor, single point]",–
Cc1cc(C)c(C(=O)Nc2ccc(Br)c(C(F)(F)F)c2)c(C)c1,active: 13.1 µM,–
O=C(Oc1cccccc1=O)c1ccccc1,"inconclusive [inhibitor, full curve]",–
Cc1cc(Br)cn2cc(C(=O)O)nc12,"inconclusive [inhibitor, partial curve, poor fit]",–
CCOc1ccccc1N(CC(=O)Nc1ccc(S(=O)(=O)N2CCOCC2)cc1)S(=O)(=O)c1ccccc1,"inconclusive [inhibitor, full curve, poor fit]",–
Cc1onc(-c2c(F)cccc2Cl)c1C(=O)Nc1cccc2nsnc12,"inconclusive [inhibitor, partial curve, poor fit]",–
CCCCCCN(C(=O)CCCCCN1C(=O)NC(c2ccc(-c3ccccc3)cc2)C(C(=O)OCc2ccccc2)=C1C)C(C(=O)NCCCC)c1ccccc1 (stereo not drawn),active: 2.62 µM,–
CCOc1ccc(C(=O)Nc2cccc([N+](=O)[O-])c2)cc1Br,"inconclusive [inhibitor, single point]",–
COc1ccc([C@H]2CC(=O)C=C(c3ccc(O)cc3)C2)cc1OC,"inconclusive [inhibitor, partial curve, poor fit]",–

SMILES,Potency,"activity change, negative = inhibition"
Cc1ccc(-n2cc(CN(C)Cc3nccn3C)c(-c3ccc(F)cc3)n2)cc1,active: 8.28 µM,–
Cc1ccc(S(=O)(=O)Nc2cc(NC(=O)CN3CCOCC3)ccc2Cl)cc1,"inconclusive [inhibitor, partial curve, poor fit]",–
O=C(CN1CCCN(Cc2ccc(F)cc2)S1(=O)=O)NC1CCCC1,"inconclusive [inhibitor, full curve, poor fit]",–
Cc1ccc(NC(=O)C(NCc2ccccn2)c2ccccc2)cc1 (stereo not drawn),"inconclusive [inhibitor, single point]",–
C/C(=N\NC(=S)NC(C)C)c1ccccc1OC(F)F,–,inactive: -20.2%
COc1ccc(-c2csc3ncnc(N4CCN(c5ccccc5[N+](=O)[O-])CC4)c23)cc1,"inconclusive [inhibitor, partial curve, poor fit]",–
Cc1cccc(/C=N\NC(=O)c2ccc(Cl)cc2)c1O,"inconclusive [inhibitor, partial curve]",–
Cc1nn(-c2ccccc2)c(C)c1C(=O)OCC(=O)N(C)c1ccccc1,"inconclusive [inhibitor, single point]",–
CCO[C@@H]1OC(C(=O)NCc2ccccc2)=C[C@H](c2ccc(C(F)(F)F)cc2)[C@H]1CCCO,active: 4.65 µM,–
COc1ccc(NC(=O)Nc2ccccc2OC)cc1,–,inactive: 133%
CC1(C)CC(=O)C(C=NCCN2CCN(CCc3ccccc3)CC2)=C(O)C1,"inconclusive [inhibitor, single point]",–
OCCC1CN(Cc2cccc(F)c2F)CCN1CCc1ccccc1 (stereo not drawn),–,inactive: 7.58%
O=C(NCC(=O)N(CC1CCCO1)C(C(=O)NC1CCCCC1)c1cccnc1)c1cccs1 (stereo not drawn),–,inactive: -12.2%
CCOC(=O)c1cc(S(=O)(=O)N2CCN(C(=O)OCC)CC2)cn1C,–,inactive: 1.97%
COc1ccc(C)cc1N(CC(=O)O)S(=O)(=O)c1ccc(C)cc1,"inconclusive [inhibitor, partial curve, poor fit]",–
CC(=O)Nc1ccc(NC(=O)C(C)OC(=O)C2CCN(S(=O)(=O)c3ccc4c(c3)OCCO4)CC2)cc1 (stereo not drawn),"inconclusive [inhibitor, single point]",–
CCN(C(=O)COC(=O)c1cc2c(s1)CCCCC2)C1CCS(=O)(=O)C1 (stereo not drawn),"inconclusive [inhibitor, full curve, poor fit]",–
N#Cc1nc(COc2ccccc2)oc1NCCCn1ccnc1,"inconclusive [inhibitor, single point]",–
COc1ccc(Cn2c3nc4ccccc4nc3c3c(=O)n(Cc4ccco4)cnc32)cc1,active: 9.28 µM,–
CCc1ccc(C(=O)NC(=S)Nc2ccccc2N2CCOCC2)cc1,"inconclusive [inhibitor, partial curve]",–
COc1ccc(/C=C(\C#N)c2nc3ccc(C)cc3[nH]2)cc1Oc1ccc(C(F)(F)F)cc1[N+](=O)[O-],"inconclusive [inhibitor, partial curve, poor fit]",–
O=C(COc1ccc(Br)cc1)N1CCN(S(=O)(=O)/C=C/c2ccccc2)CC1,"inconclusive [inhibitor, partial curve, poor fit]",–
O=C(Cc1c(F)cccc1Cl)N1CCCC1,–,inactive: 3.03%

SMILES,Potency,"activity change, negative = inhibition"
NC(=O)C1CCN(c2ncnc3c(-c4ccccc4)nsc23)CC1,–,inactive: 75.8%
COc1ccccc1Oc1ncnc2c1oc1ccccc12,–,inactive: 0.972%
COc1ccccc1OCCCn1c(=O)sc2ccccc21,–,inactive: -1.56%
c1ccn2cc(-c3ccc4c(c3)OCO4)cc2c1,"inconclusive [inhibitor, single point]",–
C[C@H]1CCC[C@]2(C)C[C@H]3OC(=O)C(CN4CCCCCC4)[C@H]3C=C12 (stereo partly drawn),"inconclusive [inhibitor, partial curve, poor fit]",–
Cc1ccc2cc(-c3noc(C4CCCCC4)n3)c(=O)[nH]c2c1,–,inactive: 39.2%
O=[N+]([O-])c1cccnc1NCCc1c[nH]c2ccccc12,–,inactive: 141%
Cc1csc(NC(=O)CSc2nc(=O)n(CCN(C)C)c3c2CCCC3)n1,"inconclusive [inhibitor, partial curve]",–
O=C(Nc1ncc(Cc2ccccc2Cl)s1)c1ccc(-c2cccc([N+](=O)[O-])c2)o1,"inconclusive [inhibitor, single point]",–
c1ccc(-c2nc(NCc3cccnc3)c3ccccc3n2)cc1,"inconclusive [inhibitor, single point]",–
CC(=O)N(CCC1(C(C)C)CCOC(C)(C)C1)C(C)c1cccs1 (stereo not drawn),"inconclusive [inhibitor, single point]",–
O=C(c1ccc(S(=O)(=O)Cc2ccccc2Cl)c([N+](=O)[O-])c1)N1CCOCC1,"inconclusive [inhibitor, single point]",–
CCOC(=O)c1nnc(-c2ccccc2)nc1NCc1ccccc1,"inconclusive [inhibitor, partial curve, poor fit]",–
NCCCCCc1cn([C@@H](CCC(=O)O)C(=O)NCCCCCCCCCCC(=O)N2CCNCC2)nn1,–,inactive: 17.9%
Cc1ccc(OCCN(C)C(=O)C2CCC(=O)N(CC3CCCCC3)C2)cc1 (stereo not drawn),"inconclusive [inhibitor, partial curve, poor fit]",–
O=C(OCC(=O)N1CCCC1=O)c1ccc(O)cc1O,–,inactive: 3.56%
CC(/C=C/c1ccccc1)=N\Nc1nc(-c2ccccc2)cs1,"inconclusive [inhibitor, partial curve, poor fit]",–
COc1ccc(NC(=O)c2cc(-c3cccnc3)nc3ccc(C)cc23)cc1OC,"inconclusive [inhibitor, full curve, poor fit]",–
Cc1onc(-c2ccccc2)c1C(=O)O/N=C(\N)c1ccc([N+](=O)[O-])o1,"inconclusive [inhibitor, partial curve, poor fit]",–
O=C(NCCOc1ccc(Cl)cc1)c1ccc2ccccc2n1,–,inactive: 17.9%
COc1ccc(NC(=O)n2ncc3cc(Cl)ccc32)cc1OC,–,inactive: 65.4%
O=C(Cn1nc(-c2ccco2)ccc1=O)Nc1cc(Cl)ccc1Cl,"inconclusive [inhibitor, single point]",–
